Shown are siRNA guide strands that differ only in the seed, positions 2 to 7.
Tests used:
H4 = test: cell viability relative to siNT1 (ATP content); H4 human neuroglioma and GL261 mouse glioma; higher = less toxic; conditions: siRNA concentration 10 nM; 96 h; human
Description: (§1)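 Arrayed screen of all 4096 6mer seeds. Each seed sits at guide-strand positions 2-7 of a neutral 19mer siRNA backbone (siNT1-based, passenger strand 2'-O-methyl modified at positions 1-2 to block RISC loading, 3' DNA overhangs). The guide strand is built here as U + seed + ACAUGUAAACCA. Cells were reverse transfected in triplicate in 384-well plates (H4 at 10 nM, GL261 at 25 nM) with Lipofectamine RNAiMAX. Viability was read as ATP content (CellTiter-Glo) 96 h after transfection and normalised to siNT1 (%).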

GL261 = test: as above; conditions: siRNA concentration 25 nM; 96 h; mouse
Description: as §1
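Also: cells reverse transfected with siRNA duplexes via lipid reagent, ATP read by luminescence, triplicate wells, values scaled to mean viability with non-targeting control siNT1.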

Sequence	cell viability (H4)	cell viability (GL261)
UCCUGCCACAUGUAAACCA	29.2%	7.42%
UCCUGCGACAUGUAAACCA	103%	40.7%
UCCUGCUACAUGUAAACCA	41.7%	7.87%
UCCUGGAACAUGUAAACCA	66.2%	21.4%
UCCUGGCACAUGUAAACCA	7.81%	7.55%
UCCUGGGACAUGUAAACCA	10.2%	12.6%
UCCUGGUACAUGUAAACCA	14.1%	30.6%
UCCUGUAACAUGUAAACCA	84.7%	37%
UCCUGUCACAUGUAAACCA	30.1%	9%
UCCUGUGACAUGUAAACCA	59.2%	33.2%
UCCUGUUACAUGUAAACCA	70.9%	16.2%
UCCUUAAACAUGUAAACCA	87.1%	55%
UCCUUACACAUGUAAACCA	82.2%	44.1%
UCCUUAGACAUGUAAACCA	71.7%	64%
UCCUUAUACAUGUAAACCA	69.5%	60.2%
UCCUUCAACAUGUAAACCA	75.6%	37.2%
UCCUUCCACAUGUAAACCA	9.23%	19.2%
UCCUUCGACAUGUAAACCA	97.8%	46.5%
UCCUUCUACAUGUAAACCA	56.8%	29.1%
UCCUUGAACAUGUAAACCA	95.4%	41.5%
UCCUUGCACAUGUAAACCA	3.55%	10.5%
UCCUUGGACAUGUAAACCA	44.1%	30%
UCCUUGUACAUGUAAACCA	67.7%	12.7%

Sequence	cell viability (H4)	cell viability (GL261)
UCCUUUAACAUGUAAACCA	77.9%	47.4%
UCCUUUCACAUGUAAACCA	43.2%	42.2%
UCCUUUGACAUGUAAACCA	78%	43%
UCCUUUUACAUGUAAACCA	91.2%	33.2%
UCGAAAAACAUGUAAACCA	97.2%	49.3%
UCGAAACACAUGUAAACCA	105%	40.9%
UCGAAAGACAUGUAAACCA	106%	50.7%
UCGAAAUACAUGUAAACCA	95.6%	59.3%
UCGAACAACAUGUAAACCA	76.6%	54.4%
UCGAACCACAUGUAAACCA	66.7%	33.2%
UCGAACGACAUGUAAACCA	108%	54.2%
UCGAACUACAUGUAAACCA	84.4%	49.7%
UCGAAGAACAUGUAAACCA	97.1%	36.4%
UCGAAGCACAUGUAAACCA	34.9%	29.5%
UCGAAGGACAUGUAAACCA	75.7%	59.6%
UCGAAGUACAUGUAAACCA	103%	41.2%
UCGAAUAACAUGUAAACCA	94.4%	46.4%
UCGAAUCACAUGUAAACCA	80.8%	62.3%
UCGAAUGACAUGUAAACCA	80.8%	43.4%
UCGAAUUACAUGUAAACCA	103%	42.3%
UCGACAAACAUGUAAACCA	96.3%	52.4%
UCGACACACAUGUAAACCA	71.9%	50.9%
UCGACAGACAUGUAAACCA	81.7%	67.2%

Sequence	cell viability (H4)	cell viability (GL261)
UCGACAUACAUGUAAACCA	84%	54.5%
UCGACCAACAUGUAAACCA	115%	61.4%
UCGACCCACAUGUAAACCA	74.5%	32.4%
UCGACCGACAUGUAAACCA	72.4%	73.1%
UCGACCUACAUGUAAACCA	96%	42.7%
UCGACGAACAUGUAAACCA	84.9%	43.4%
UCGACGCACAUGUAAACCA	65.8%	23.4%
UCGACGGACAUGUAAACCA	77.3%	24.7%
UCGACGUACAUGUAAACCA	113%	76.7%
UCGACUAACAUGUAAACCA	91.5%	57.6%
UCGACUCACAUGUAAACCA	92.5%	17%
UCGACUGACAUGUAAACCA	103%	46.5%
UCGACUUACAUGUAAACCA	71.6%	35.7%
UCGAGAAACAUGUAAACCA	99.3%	44%
UCGAGACACAUGUAAACCA	77.1%	27.3%
UCGAGAGACAUGUAAACCA	81.7%	40.3%
UCGAGAUACAUGUAAACCA	80.8%	30.6%
UCGAGCAACAUGUAAACCA	75.5%	54.4%
UCGAGCCACAUGUAAACCA	39.5%	22.8%
UCGAGCGACAUGUAAACCA	99.5%	33.3%
UCGAGCUACAUGUAAACCA	38.9%	16.8%
UCGAGGAACAUGUAAACCA	78.2%	32.3%
UCGAGGCACAUGUAAACCA	49.1%	6.6%

Sequence	cell viability (H4)	cell viability (GL261)
UCGAGGGACAUGUAAACCA	65.5%	28.5%
UCGAGGUACAUGUAAACCA	85.9%	32.8%
UCGAGUAACAUGUAAACCA	109%	68%
UCGAGUCACAUGUAAACCA	59.9%	25.9%
UCGAGUGACAUGUAAACCA	72.7%	55.8%
UCGAGUUACAUGUAAACCA	93.5%	37.2%
UCGAUAAACAUGUAAACCA	92.5%	102%
UCGAUACACAUGUAAACCA	94.5%	27.8%
UCGAUAGACAUGUAAACCA	93.6%	52.2%
UCGAUAUACAUGUAAACCA	90.4%	50%
UCGAUCAACAUGUAAACCA	72.2%	59.3%
UCGAUCCACAUGUAAACCA	67.3%	19.5%
UCGAUCGACAUGUAAACCA	90.8%	53.8%
UCGAUCUACAUGUAAACCA	85.7%	56.2%
UCGAUGAACAUGUAAACCA	106%	38.9%
UCGAUGCACAUGUAAACCA	31.3%	10.8%
UCGAUGGACAUGUAAACCA	72.5%	30.7%
UCGAUGUACAUGUAAACCA	81.6%	38%
UCGAUUAACAUGUAAACCA	110%	59%
UCGAUUCACAUGUAAACCA	80.8%	31.7%
UCGAUUGACAUGUAAACCA	110%	51.8%
UCGAUUUACAUGUAAACCA	72.8%	40.7%
UCGCAAAACAUGUAAACCA	89.8%	38.7%

Sequence	cell viability (H4)	cell viability (GL261)
UCGCAACACAUGUAAACCA	89.8%	31.5%
UCGCAAGACAUGUAAACCA	120%	48.3%
UCGCAAUACAUGUAAACCA	78.4%	39.4%
UCGCACAACAUGUAAACCA	112%	15.4%
UCGCACCACAUGUAAACCA	46.2%	25.8%
UCGCACGACAUGUAAACCA	74.7%	28.2%
UCGCACUACAUGUAAACCA	71.1%	9.71%
UCGCAGAACAUGUAAACCA	91.3%	55.9%
UCGCAGCACAUGUAAACCA	15.9%	14.2%
UCGCAGGACAUGUAAACCA	44.8%	31.2%
UCGCAGUACAUGUAAACCA	54.5%	14%
UCGCAUAACAUGUAAACCA	73.8%	38%
UCGCAUCACAUGUAAACCA	62.2%	23.7%
UCGCAUGACAUGUAAACCA	92.1%	35.6%
UCGCAUUACAUGUAAACCA	74.2%	44%
UCGCCAAACAUGUAAACCA	101%	50.3%
UCGCCACACAUGUAAACCA	58%	22.3%
UCGCCAGACAUGUAAACCA	60.8%	29.7%
UCGCCAUACAUGUAAACCA	73.1%	36.2%
UCGCCCAACAUGUAAACCA	72.8%	45%
UCGCCCCACAUGUAAACCA	64.4%	23.2%

From the supplement of paper PMC8948288
